Measurements reported in US7619094B2, “Ketoamides with cyclic P4's as inhibitors of NS3 serine protease of hepatitis C virus” (Schering Corporation, priority 2004, dated 2009).

These molecules were tested against Recombinant heterodimeric HCV NS3/NS4A protease (strain 1a) (Hepatitis C virus genotype 1a, UniProt P27958) (assay: HCV continuous assay (spectrophotometric HCV NS3/NS4A serine protease inhibition assay)). Conditions: Table 1; ranges of Ki* values in HCV continuous assay.
Type: biochemical, HCV (strain 1a)
Text: The present invention relates to novel HCV protease inhibitors. This utility can be manifested in their ability to inhibit the HCV NS3/NS4a serine protease.
Assay for HCV Protease Inhibitory Activity:
• Spectrophotometric Assay: Spectrophotometric assay for the HCV serine protease can be performed on the inventive compounds by following the procedure described by R. Zhang et al, Analytical Biochemistry, 270 (1999) 268-275, the disclosure of which is incorporated herein by reference. The assay based on the proteolysis of chromogenic ester substrates is suitable for the continuous monitoring of HCV NS3 protease activity. The substrates are derived from the P side of the NS5A-NS5B junction sequence (Ac-DTEDWX(Nva), where X=A or P) whose C-terminal carboxyl groups are esterified with one of four different chromophoric alcohols (3- or 4-nitrophenol, 7-hydroxy-4-methyl-coumarin, or 4-phenylazophenol). Illustrated below are the synthesis, characterization and application of these novel spectrophotometric ester substrates to high throughput screening and detailed kinetic evaluation of HCV NS3 protease inhibitors. Materials and Methods:
Materials: Chemical reagents for assay related buffers are obtained from Sigma Chemical Company (St. Louis, Mo.). Reagents for peptide synthesis were from Aldrich Chemicals, Novabiochem (San Diego, Calif.), Applied Biosystems (Foster City, Calif.) and Perseptive Biosystems (Framingham, Mass.). Peptides are synthesized manually or on an automated ABI model 431A synthesizer (from Applied Biosystems). UV/VIS Spectrometer model LAMBDA 12 was from Perkin Elmer (Norwalk, Conn.) and 96-well UV plates were obtained from Corning (Corning, N.Y.). The prewarming block can be from USA Scientific (Ocala, Fla.) and the 96-well plate vortexer is from Labline Instruments (Melrose Park, Ill.). […] Protein concentrations are determined by the Biorad dye method using recombinant HCV protease standards previously quantified by amino acid analysis. Prior to assay initiation, the enzyme storage buffer (50 mM sodium phosphate pH 8.0, 300 mM NaCl, 10% glycerol, 0.05% lauryl maltoside and 10 mM DTT) is exchanged for the assay buffer (25 mM MOPS pH 6.5, 300 mM NaCl, 10% glycerol, 0.05% lauryl maltoside, 5 μM EDTA and 5 μM DTT) utilizing a Biorad Bio-Spin P-6 prepacked column. • Substrate Synthesis and Purification: The synthesis of the substrates is done as reported by R. Zhang et al, (ibid.) and is initiated by anchoring Fmoc-Nva-OH to 2-chlorotrityl chloride resin using a standard protocol (K. Barlos et al, Int. J. Pept. Protein Res., 37 (1991), 513-520). The peptides are subsequently assembled, using Fmoc chemistry, either manually or on an automatic ABI model 431 peptide synthesizer. […] The combined filtrate and DCM wash is evaporated azeotropically (or repeatedly extracted by aqueous Na2CO3 solution) to remove the acid used in cleavage. The DCM phase is dried over Na2SO4 and evaporated.
The ester substrates are assembled using standard acid-alcohol coupling procedures (K. Holmber et al, Acta Chem. Scand., B33 (1979) 410-412). Peptide fragments are dissolved in anhydrous pyridine (30-60 mg/ml) to which 10 molar equivalents of chromophore and a catalytic amount (0.1 eq.) of para-toluenesulfonic acid (PTSA) were added. Dicyclohexylcarbodiimide (DCC, 3 eq.) is added to initiate the coupling reactions. Product formation is monitored by HPLC and can be found to be complete following 12-72 hour reaction at room temperature. Pyridine solvent is evaporated under vacuum and further removed by azeotropic evaporation with toluene.

Structure (SMILES) | Ki
C=CCNC(=O)C(=O)C(CC1CCC1)NC(=O)[C@@H]1[C@@H]2[C@H](CN1C(=O)[C@@H](NC(=O)N[C@H](CN1CCCN(C)S1(=O)=O)C(C)(C)C)C(C)(C)C)C2(C)C (some centres unmarked) [Compound 5235] | ≤ 50 nM
CCCCC(NC(=O)[C@@H]1[C@@H]2[C@H](CN1C(=O)[C@@H](NC(=O)N[C@H](CN1CCCS1(=O)=O)C(C)(C)C)C(C)(C)C)C2(C)C)C(=O)C(=O)NC (some centres unmarked) [Compound 5124] | ≤ 50 nM
C#CCCC(NC(=O)[C@@H]1[C@@H]2[C@H](CN1C(=O)[C@@H](NC(=O)N[C@H](CN1CCCS1(=O)=O)C(C)(C)C)C(C)(C)C)C2(C)C)C(=O)C(=O)NCCC (some centres unmarked) [Compound 5145] | ≤ 50 nM
CNC(=O)C(=O)C(CC1CC1)NC(=O)[C@@H]1[C@@H]2[C@H](CN1C(=O)[C@@H](NC(=O)N[C@H](CN1CCCS1(=O)=O)C(C)C)C(C)(C)C)C2(C)C (some centres unmarked) [Compound 5110] | ≤ 50 nM
C=CCNC(=O)C(=O)C(CC1CC1)NC(=O)[C@@H]1[C@@H]2[C@H](CN1C(=O)[C@@H](NC(=O)N[C@H](CN1CCCS1(=O)=O)C(C)(C)C)C(C)(C)C)C2(C)C (some centres unmarked) [Compound 5114] | ≤ 50 nM
C=CCNC(=O)C(=O)C(CC1CC1)NC(=O)[C@@H]1[C@@H]2[C@H](CN1C(=O)[C@@H](NC(=O)N[C@H](CN1Cc3ccccc3S1(=O)=O)C(C)(C)C)C(C)(C)C)C2(C)C (some centres unmarked) [Compound 5165] | ≤ 50 nM
C=CCNC(=O)C(=O)C(CCCC)NC(=O)[C@@H]1[C@@H]2[C@H](CN1C(=O)[C@@H](NC(=O)N[C@H](CN1CCCNS1(=O)=O)C(C)(C)C)C(C)(C)C)C2(C)C (some centres unmarked) [Compound 5217] | > 50 nM
CC(C)(C)[C@H](NC(=O)N[C@H](CN1Cc2sccc2S1(=O)=O)C(C)(C)C)C(=O)N1C[C@H]2[C@@H]([C@H]1C(=O)NC(CC1CC1)C(=O)C(N)=O)C2(C)C (some centres unmarked) [Compound 5151] | ≤ 50 nM
CC(C)(C)[C@H](NC(=O)N[C@H](CN1Cc2ccccc2S1(=O)=O)C1CCCCC1)C(=O)N1C[C@H]2[C@@H]([C@H]1C(=O)NC(CC1CC1)C(=O)C(N)=O)C2(C)C (some centres unmarked) [Compound 5226] | ≤ 50 nM
CC(C)N1CCN(C[C@@H](NC(=O)N[C@H](C(=O)N2C[C@H]3[C@@H]([C@H]2C(=O)NC(CC2CCC2)C(=O)C(N)=O)C3(C)C)C(C)(C)C)C(C)(C)C)S1(=O)=O (some centres unmarked) [Compound 5210] | ≤ 50 nM
C=CCNC(=O)C(=O)C(CCC)NC(=O)[C@@H]1[C@@H]2[C@H](CN1C(=O)[C@@H](NC(=O)N[C@H](CN1CCN(C(=O)OCc3ccccc3)S1(=O)=O)C(C)(C)C)C(C)(C)C)C2(C)C (some centres unmarked) [Compound 5129] | ≤ 50 nM
C#CCCC(NC(=O)[C@@H]1[C@@H]2[C@H](CN1C(=O)[C@@H](NC(=O)N[C@H](CN1Cc3ccccc3S1(=O)=O)C(C)(C)C)C(C)(C)C)C2(C)C)C(=O)C(=O)NCC=C (some centres unmarked) [Compound 5170] | ≤ 50 nM

Same assay, conditions: Table 2; ranges of Ki* values in HCV continuous assay

Structure (SMILES) | Ki
C=CCNC(=O)C(=O)C(CCC)NC(=O)[C@@H]1[C@@H]2[C@H](CN1C(=O)[C@@H](NC(=O)N[C@H](CN1C(=O)CNC1=O)C(C)(C)C)C1CCCCC1)C2(C)C (some centres unmarked) [Compound 5815] | ≤ 50 nM
CC(C)(C)[C@H](NC(=O)N[C@H](CN1C(=O)c2ccncc2C1=O)C(C)(C)C)C(=O)N1C[C@H]2[C@@H]([C@H]1C(=O)NC(CC1CCC1)C(=O)C(N)=O)C2(C)C (some centres unmarked) [Compound 5659] | ≤ 50 nM
C=CCNC(=O)C(=O)C(CC1CC1)NC(=O)[C@@H]1[C@@H]2[C@H](CN1C(=O)[C@@H](NC(=O)N[C@H](CN1Cc3ccccc3C1=O)C(C)(C)C)C(C)(C)C)C2(C)C (mixture of isomers) [Compound 5743] | ≤ 50 nM
CCCC(NC(=O)[C@@H]1[C@@H]2[C@H](CN1C(=O)[C@@H](NC(=O)N[C@H](CN1C(=O)c3ccccc3C1=O)C(C)(C)C)C(C)(C)C)C2(C)C)C(=O)C(N)=O (some centres unmarked) [Compound 5626] | ≤ 50 nM
C=CCNC(=O)C(=O)C(CCC)NC(=O)[C@@H]1[C@@H]2[C@H](CN1C(=O)[C@@H](NC(=O)N[C@H](CN1Cc3ccccc3C1=O)C(C)(C)C)C1CCCCC1)C2(C)C (some centres unmarked) [Compound 5751] | ≤ 50 nM
C=CCNC(=O)C(=O)C(CC1CC1)NC(=O)[C@@H]1[C@@H]2[C@H](CN1C(=O)[C@@H](NC(=O)N[C@H](CN1C(=O)COCC1=O)C(C)(C)C)C(C)(C)C)C2(C)C (some centres unmarked) [Compound 5691] | ≤ 50 nM
C=CCNC(=O)C(=O)C(CC1CCC1)NC(=O)[C@@H]1[C@@H]2[C@H](CN1C(=O)[C@@H](NC(=O)N[C@H](CN1CCCN(C)C1=O)C(C)(C)C)C(C)(C)C)C2(C)C (some centres unmarked) [Compound 5693] | > 50 nM
C=CCNC(=O)C(=O)C(CC1CC1)NC(=O)[C@@H]1[C@@H]2[C@H](CN1C(=O)[C@@H](NC(=O)N[C@@H](CC(C)C)CN1CCCNC1=O)C(C)(C)C)C2(C)C (some centres unmarked) [Compound 5656] | > 50 nM
C=CCNC(=O)C(=O)C(CCC)NC(=O)[C@@H]1[C@@H]2[C@H](CN1C(=O)[C@@H](NC(=O)N[C@H](CN1CCCN(C)C1=O)C(C)(C)C)C1CCCCC1)C2(C)C (some centres unmarked) [Compound 5687] | > 50 nM
C=CCNC(=O)C(=O)C(CCC)NC(=O)[C@@H]1[C@@H]2[C@H](CN1C(=O)[C@@H](NC(=O)N[C@H](CN1C(=O)CCCC1=O)C(C)(C)C)C1(C)CCCCC1)C2(C)C (some centres unmarked) [Compound 5799] | ≤ 50 nM
CCCCC(NC(=O)[C@@H]1[C@@H]2[C@H](CN1C(=O)[C@@H](NC(=O)N[C@H](CN1CCCCC1=O)C(C)(C)C)C(C)(C)C)C2(C)C)C(=O)C(=O)NCC (some centres unmarked) [Compound 5734] | ≤ 50 nM
C=CCNC(=O)C(=O)C(CCC(F)(F)F)NC(=O)[C@@H]1[C@@H]2[C@H](CN1C(=O)[C@@H](NC(=O)N[C@H](CN1CCOC1=O)C(C)(C)C)C(C)(C)C)C2(C)C (some centres unmarked) [Compound 5630] | ≤ 50 nM
C=CCNC(=O)C(=O)C(CCCC)NC(=O)[C@@H]1[C@@H]2[C@H](CN1C(=O)[C@@H](NC(=O)N[C@H](CN1C(=O)CC(C)(C)CC1=O)C(C)(C)C)C(C)(C)C)C2(Cl)Cl (some centres unmarked) [Compound 5756] | ≤ 50 nM
CC(C)[C@@H](Cn1ccccc1=O)NC(=O)N[C@H](C(=O)N1C[C@H]2[C@@H]([C@H]1C(=O)NC(CC1CCC1)C(=O)C(N)=O)C2(C)C)C(C)(C)C (some centres unmarked) [Compound 5604] | ≤ 50 nM
C=CCNC(=O)C(=O)C(CC1CCC1)NC(=O)[C@@H]1[C@@H]2[C@H](CN1C(=O)[C@@H](NC(=O)N[C@H](CN1CCCNC1=O)C(C)(C)C)C(C)(C)C)C2(C)C (some centres unmarked) [Compound 5712] | ≤ 50 nM
C=CCNC(=O)C(=O)C(CCCC)NC(=O)[C@@H]1[C@@H]2[C@H](CN1C(=O)[C@@H](NC(=O)N[C@H](CN1C(=O)CC3(CCCC3)CC1=O)C(C)(C)C)C1(C)CCCCC1)C2(C)C (some centres unmarked) [Compound 5795] | ≤ 50 nM
C=CCNC(=O)C(=O)C(CC1CCC1)NC(=O)[C@@H]1[C@@H]2[C@H](CN1C(=O)[C@@H](NC(=O)N[C@H](CN1CCCCC1=O)C1CCCCC1)C(C)(C)C)C2(C)C (some centres unmarked) [Compound 5736] | ≤ 50 nM
CC(C)(C)[C@H](NC(=O)N[C@H](CN1CCCOC1=O)C(C)(C)C)C(=O)N1C[C@H]2[C@@H]([C@H]1C(=O)NC(CC1CC1)C(=O)C(N)=O)C2(C)C (some centres unmarked) [Compound 5698] | ≤ 50 nM
C=CCNC(=O)C(=O)C(CCCC)NC(=O)[C@@H]1[C@@H]2[C@H](CN1C(=O)[C@@H](NC(=O)N[C@H](CN1C(=O)CC(C)(C)CC1=O)C(C)(C)C)C(C)(C)C)C2(C)C (some centres unmarked) [Compound 5753] | ≤ 50 nM
C=CCNC(=O)C(=O)C(CCC)NC(=O)[C@@H]1[C@@H]2[C@H](CN1C(=O)[C@@H](NC(=O)N[C@H](CN1C(=O)CC(C)(C)CC1=O)C(C)(C)C)C(C)(C)C)C2(C)C (some centres unmarked) [Compound 5757] | ≤ 50 nM
CC1(C)CC(=O)N(C[C@@H](NC(=O)N[C@H](C(=O)N2C[C@H]3[C@@H]([C@H]2C(=O)NC(CC2CCC2)C(=O)C(N)=O)C3(C)C)C2CCCCC2)C(C)(C)C)C(=O)C1 (some centres unmarked) [Compound 5784] | ≤ 50 nM
C=CCNC(=O)C(=O)C(CC1CC1)NC(=O)[C@@H]1[C@@H]2[C@H](CN1C(=O)[C@@H](NC(=O)N[C@H](CN1CCCN(C)C1=O)C(C)(C)C)C(C)(C)C)C2(C)C (some centres unmarked) [Compound 5684] | > 50 nM

Same assay, conditions: Table 4; Ki* values

Structure (SMILES) | Ki
C=CCNC(=O)C(=O)C(CCCC)NC(=O)[C@@H]1[C@@H]2[C@H](CN1C(=O)[C@@H](NC(=O)N[C@H](CN1C(=O)CC(C)(C)CC1=O)C(C)(C)C)C(C)(C)C)C2(C)C (some centres unmarked) [Compound 5753] | 4 nM
